These results are taken from PubChem BioAssay AID1645882 (National Center for Advancing Translational Sciences (NCATS), 2021).

“And” between values parts separate entries of the source, which are not always exact repeats. Equal values may be shown once. In all, about 16,000 compounds went through this assay and about 120 (0.75%) were called active. Inconclusive results (about 4%) are left out. Calls come from the whole dose curve; as a rule, active = well fitted inhibition curve with a large enough effect; inconclusive = small, poorly fitted or top-dose-only effect; inactive = no such curve, though single readings can be large or run the other way. The list shows a part of the results. The source holds several records for some structures; these can differ, active in one and inactive in another.
Potency is the fitted concentration of half-maximal effect.

This test addresses Rap guanine nucleotide exchange factor 3 (Homo sapiens) (UniProt O95398). Put plainly: Validation qHTS for antagonist of cAMP-regulated guanine nucleotide exchange factor 3 (EPAC1).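 For activity change, negative = inhibition: plate controls were DMSO for no effect and ATA control for full effect.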 Note: nearly all actives have a fitted effect of over 75% in size. As to conditions: EPAC1 Rap1B-BODIPY-GDP exchange, fluorescence; series mostly up to 150 µM; activity change, negative = inhibition: at the top concentration. Summed up: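 Nucleotide exchange followed as fluorescence loss when BODIPY-GDP leaves Rap1B (480 nm excitation, 540 nm emission), read at 5 min intervals over 30 min. Reaction: 100 nM EPAC1, 250 nM RAP1B-BODIPY-GDP, 50 uM GDP; ATA and DMSO define normalization.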
UniProt O95398, sequence (O95398 whole entry, looked up): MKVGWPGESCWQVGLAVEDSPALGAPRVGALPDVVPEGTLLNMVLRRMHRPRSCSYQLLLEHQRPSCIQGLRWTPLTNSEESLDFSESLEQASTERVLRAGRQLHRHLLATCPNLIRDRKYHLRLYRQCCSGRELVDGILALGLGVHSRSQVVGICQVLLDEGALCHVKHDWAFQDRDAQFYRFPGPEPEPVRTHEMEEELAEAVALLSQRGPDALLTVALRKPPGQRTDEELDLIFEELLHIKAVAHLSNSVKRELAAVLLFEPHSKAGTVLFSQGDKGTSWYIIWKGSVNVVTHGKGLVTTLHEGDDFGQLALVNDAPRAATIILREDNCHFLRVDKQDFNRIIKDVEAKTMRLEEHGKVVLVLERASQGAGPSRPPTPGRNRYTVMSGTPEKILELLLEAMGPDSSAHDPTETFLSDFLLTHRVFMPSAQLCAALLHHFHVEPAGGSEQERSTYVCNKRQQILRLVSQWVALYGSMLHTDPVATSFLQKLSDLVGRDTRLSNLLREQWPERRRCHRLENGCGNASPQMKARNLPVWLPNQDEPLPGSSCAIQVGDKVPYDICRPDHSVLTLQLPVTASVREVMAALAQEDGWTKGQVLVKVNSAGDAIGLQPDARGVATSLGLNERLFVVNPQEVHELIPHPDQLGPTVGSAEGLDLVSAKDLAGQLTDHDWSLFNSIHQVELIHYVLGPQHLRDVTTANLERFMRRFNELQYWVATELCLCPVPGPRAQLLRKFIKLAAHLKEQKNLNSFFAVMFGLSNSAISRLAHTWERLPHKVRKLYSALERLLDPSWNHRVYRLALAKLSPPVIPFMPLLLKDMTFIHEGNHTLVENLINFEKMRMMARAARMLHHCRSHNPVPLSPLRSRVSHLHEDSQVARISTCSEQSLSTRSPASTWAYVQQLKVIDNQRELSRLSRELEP
Turning to `O=C(O)CCCC[C@@H]1CCSS1`, the “activity change, negative = inhibition” value was inactive: 13% [at 75.8 µM].
On the same count and under the same terms, as for `C=N[C@@H](C(=O)N[C@@H]1C(=O)N2[C@@H]1SC(C)(C)[C@@H]2C(=O)O)c1ccccc1`, the figure is inactive: 13%; as for `CC[N+](CC)(CC(=O)Nc1c(C)cccc1C)Cc1ccccc1`, “inactive”; as for `O=C1CCC[C@@H]2C[C@@]3(C[C@@H]4CCN1[C@H]24)Nc1cc(Cl)c(Cl)cc1NC3=NCc1ccccc1`, inactive: -16%.
On the same count and under the same terms, then `COc1cc(NS(=O)(=O)c2ccc(N)cc2)nc(OC)n1`, with “inactive”; and `COc1cc2ccc(=O)oc2cc1O`, with “inactive”.
On the same count and under the same terms, as for `CC1(C)O[C@@H]2[C@@H](CO[C@@]3(COS(N)(=O)=O)OC(C)(C)O[C@@H]23)O1`, the figure is inactive: 13%; as for `Cc1cccc(CNc2cc(-c3ccc(C(=O)N(C)C)cc3)ncn2)c1`, inactive: 26.1%; as for `O=c1c(-c2ccc(F)cc2)nc2cnc(N3CCNCC3)nc2n1-c1ccccc1`, inactive: -3.13%.
Turning to `O=C1N=C2SCCN2C(=O)C1Cc1ccc(Cl)cc1` (centres undefined), the “activity change, negative = inhibition” value was inactive: 2.11%.
For the molecule `c1ccc(CN(CCN(Cc2ccccn2)Cc2ccccn2)Cc2ccccn2)nc1`, the “activity change, negative = inhibition” value was inactive: 6.37% [at 201 µM].
The same measure, in the same setting: then `CC1(S(=O)(=O)O)CC(=O)c2ccccc2C1=O` (centres undefined), with inactive: -3.24%.
For `COc1ncc2ncc(=O)n(C3CC3)c2n1`, the “activity change, negative = inhibition” value is inactive: -8.92%.
Same read-out and setting: then `C[C@]12CC[C@H]3[C@@H](CCC4=CC(=O)CC[C@@]43C)[C@@H]1CC[C@@H]2C(=O)CO`, with inactive: 2.74% [at 75.8 µM].
The same measure, in the same setting: then `NCCNC(=O)Cc1ccc(NC(=O)Cc2ccc(Nc3ncnc4c3ncn4[C@@H]3O[C@H](CO)[C@@H](O)[C@H]3O)cc2)cc1`, with inactive: 18.6%; and `O=C(O)CCCCC1SCC2NC(=O)NC21` (centres undefined), with inactive: 4.97%.
On the same count and under the same terms, then `O=C1CSC2(CCN(CCCN3c4ccccc4Sc4ccc(Cl)cc43)CC2)N1`, with inactive: 10.2%.
Turning to `Cc1ccc2c(c1)C(=O)[C@@]1(O)CCN(c3ccccc3)C1=N2`, the “activity change, negative = inhibition” value is inactive: -6.6%.
On to `O=C1Nc2ccc(I)cc2/C1=C/c1cc(Br)c(O)c(Br)c1`, for which the Potency was active: 89.1 µM and active: 79.4 µM and inactive.
Consider `CC(=O)N1CCC2(CCCN(C(c3ccccc3)c3ccccc3)C2)CC1`, for which the “activity change, negative = inhibition” value is inactive: -5.99%.
Same read-out and setting: as for `C[C@H](NC[C@H](O)CP(=O)(O)Cc1ccccc1)c1ccc(Cl)c(Cl)c1`, the entry is “inactive”; as for `O=c1c(-c2ccc(F)cc2)nc2cnc(N3CCOCC3)nc2n1-c1ccccc1`, inactive: 12.8%; as for `CCn1c(-c2ccccc2F)nc2cc(NC(C)=O)cc(C(=O)N3CCC[C@H]3C(=O)OC)c21`, inactive: -2.27%.
Take `CC1CN(CCNC(=O)C2CCCc3c2[nH]c2ccccc32)Cc2ccccc2O1` (centres undefined): the “activity change, negative = inhibition” value was inactive: -7.06%.
The same measure, in the same setting: then `Cc1cn([C@H]2C[C@H](N=[N+]=[N-])[C@@H](CO)O2)c(=O)[nH]c1=O`, with “inactive”; and `COC(=O)[C@@H](N)CS`, with inactive: 6.42%; and `COc1ccc([C@@H]2Sc3ccccc3N(CCN(C)C)C(=O)[C@@H]2OC(C)=O)cc1`, with “inactive”.
As for `COC(=O)C1OC(=O)C2O[C@@]23[C@]2(C)C(OC(C)=O)CC4C(C)(C)C(=O)CC[C@]4(C)C2CC[C@@]13C` (some centres undefined), the “activity change, negative = inhibition” value was inactive: 1.05%.
With `O=C(Nc1cccc(F)c1)N1CCC2(CC1)CCN(C(=O)c1ccco1)CC2`, the “activity change, negative = inhibition” value was inactive: 14.8%.
The same measure, in the same setting: then `Cc1ccc(CN2CCOc3ccc(CN4CCC(O)(c5cccnc5)CC4)cc3C2)cc1C`, with inactive: 4.74%; and `CCCCC[C@H](O)/C=C/[C@@H]1[C@@H](CC(=O)CCCCC(=O)O)[C@@H](O)C[C@H]1O`, with inactive: -8.76% [at 15.3 µM].
Still for that read-out and setting: as for `Cc1onc(-c2c(Cl)cccc2Cl)c1C(=O)NC1C(=O)N2C1SC(C)(C)C2C(=O)O` (centres undefined), the figure is inactive: 15.8%.
As to `C=C(CO)C1Cc2c(ccc3c2OC2COc4cc(OC)c(OC)cc4C2C3=O)O1` (centres undefined), the “activity change, negative = inhibition” value was inactive: 11.4%.
On the same count and under the same terms, as for `O=C(/C=C/c1ccc(F)cc1)NCC1Cc2cccc(-c3ncccn3)c2O1` (centres undefined), the figure is inactive: 3.84%.
Consider `COc1ccc2c(c1)C(=O)N(CCc1ccc(S(=O)(=O)NC(=O)NC3CCCCC3)cc1)C(=O)C2(C)C`, for which the “activity change, negative = inhibition” value is inactive: 12.5% [at 75.8 µM].
The same measure, in the same setting: then `O=C(Oc1ccccc1)N1CCC2(CCCN(c3ncccn3)C2)CC1`, with inactive: -2.48%; and `NS(=O)(=O)Cc1noc2ccccc12`, with inactive: 17.8%.
For `CCC1(C2CCN(C(=O)c3cc4ccccc4o3)CC2)NC(=O)N(CCc2scnc2C)C1=O` (centres undefined), the “activity change, negative = inhibition” value is inactive: 8.88%.
On the same count and under the same terms, as for `Cc1nc2cnc(N3CCOCC3)nc2n(Cc2cccs2)c1=O`, the figure is inactive: 24.5%.
Still for that read-out and setting: as for `COc1ccc2[nH]cc(CCNc3nc(-c4cccc(NS(C)(=O)=O)c4)nc4ccccc34)c2c1`, the figure is inactive: 7.42%; as for `CC[C@H](/C=C/[C@@H](C)[C@H]1CC[C@H]2C3CC=C4C[C@@H](O)CC[C@]4(C)C3CC[C@]12C)C(C)C` (some centres undefined), inactive: 9.97%.
On to `O=C(c1ccc(N2CCC(NCCCn3ncc4ccccc43)CC2)cc1)N1CCc2ccccc2C1`, for which the “activity change, negative = inhibition” value was inactive: 17.5%.
Still for that read-out and setting: then `CN(C)CCN(Cc1ccc(Cl)cc1)c1ccccn1`, with inactive: -70.6% [at 75.8 µM]; and `CC(C[N+](C)(C)C)OC(N)=O` (centres undefined), with “inactive”; and `CNC(=O)[C@@H]1C[C@H](Sc2nc3ccccc3[nH]2)CN1Cc1cccc(C(F)(F)F)c1`, with inactive: -4.05%.
The same measure, in the same setting: then `Cc1cc(C(=O)NCc2nc(-c3cccc(NC(=O)c4ccccc4)c3)oc2C)nc(C)n1`, with inactive: 9.78%; and `CN1CCN(c2ncc3nc(-c4ccc(Cl)cc4)c(=O)n(CCC#N)c3n2)CC1`, with inactive: 7.46%; and `c1ccc(Nc2cc(-c3ccoc3)ncn2)cc1`, with inactive: 5.86%.
On the same count and under the same terms, then `CC1CCC2(OC1)OC1CC3C4CCC5CC(O)CCC5(C)C4=CCC3(C)C1C2C` (centres undefined), with inactive: 9.04%.
